{"source": "the supplement of paper PMC12217912", "parents": {"B1": {"name": "TEV protease; numbered along this chain (parent)", "chain": "MGESLFKGPRDYNPISSSICHLTNESDGHTTSLYGIGFGPFIITNKHLFRRNNGTLVVQSLHGVFKVKDTTTLQQHLVDGRDMIIIRMPKDFPPFPQKLKFREPQREERICLVTTNFQTKSMSSMVSDTSCTFPSGDGIFWKHWIQTKDGQCGSPLVSTRDGFIVGIHSASNFTNTNNYFTSVPKNFMELLTNQEAQQWVSGWRLNADSVLWGGHKVFMVKPEEPFQPVKEATQL"}}, "note": "Some of the results follow. The full chains were built here from the parent and the listed change. Values near 0.05 are background.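 Further: Bxb1 expression induced with 0.2% (w/v) L-rhamnose at OD600 near 0.5, cultures sampled hourly, flipped fraction per protease–substrate barcode pair counted by paired-end Illumina sequencing.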"}
{"variants_of": "B1", "assay": "raw area under fraction-flipped curve 0-4 h after induction (AUC4h, not background-subtracted), DNA-recorder readout of cleavage of the substrate (dimensionless); higher = more cleavage of the substrate by the protease variant", "details": "temperature: 34 °C; time window: 0-4 h after rhamnose induction", "experimental": "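In vivo DNA recorder in E. coli TOP10(DE3) ΔrhaA at 34 °C. Each TEVp single-site mutant (parent TEVp 0) is paired with a single-site variant of the 7-mer TEVs (canonical ENLYFQ|S). The substrate sits between flexible linkers in a Bxb1-sfGFP-TEVs-SsrA fusion, so cleavage stabilises Bxb1 and speeds flipping of a recombination array, read by NGS. The value is the raw area under the fraction-flipped curve over 0-4 h after rhamnose induction (AUC4h), with ≥20 reads per time point. It is not background-subtracted; inactive controls average about 0.047.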"}
{"variant": "S121F", "area with substrate ENLYDQS": 0.0593, "area with substrate ENLYGQS": 0.0814, "area with substrate ENLYHQS": 0.0552, "area with substrate ENLYIQS": 0.12, "area with substrate ENLYKQS": 0.0515, "area with substrate ENLYMQS": 0.0692, "area with substrate ENLYQQS": 0.0523, "area with substrate ENLYWQS": 0.083, "area with substrate ENLYYQS": 0.0874}
{"variant": "F163A", "area with substrate ENLYDQS": 0.0792, "area with substrate ENLYSQS": 0.0651, "area with substrate ENLYYQS": 0.0667}
{"variant": "F180S", "area with substrate ENLYDQS": 0.0642, "area with substrate ENLYEQS": 0.0658, "area with substrate ENLYMQS": 0.0601, "area with substrate ENLYNQS": 0.0549}
{"variant": "F101S", "area with substrate ENLYDQS": 0.0436, "area with substrate ENLYEQS": 0.044, "area with substrate ENLYHQS": 0.0645, "area with substrate ENLYIQS": 0.0475, "area with substrate ENLYKQS": 0.0574, "area with substrate ENLYMQS": 0.0454, "area with substrate ENLYNQS": 0.0433, "area with substrate ENLYPQS": 0.0663, "area with substrate ENLYQQS": 0.0473, "area with substrate ENLYVQS": 0.0499}
{"variant": "F101E", "area with substrate ENLYDQS": 0.0604, "area with substrate ENLYEQS": 0.0495, "area with substrate ENLYHQS": 0.0509, "area with substrate ENLYIQS": 0.0579, "area with substrate ENLYMQS": 0.0379, "area with substrate ENLYNQS": 0.0542, "area with substrate ENLYQQS": 0.039}
{"variant": "S124Y", "area with substrate ENLYDQS": 0.0479, "area with substrate ENLYHQS": 0.0578, "area with substrate ENLYIQS": 0.116, "area with substrate ENLYKQS": 0.0655, "area with substrate ENLYNQS": 0.0781, "area with substrate ENLYRQS": 0.0682}
{"variant": "S124C", "area with substrate ENLYDQS": 0.0611, "area with substrate ENLYEQS": 0.0447, "area with substrate ENLYGQS": 0.0597, "area with substrate ENLYHQS": 0.0701, "area with substrate ENLYKQS": 0.0684, "area with substrate ENLYNQS": 0.0713, "area with substrate ENLYPQS": 0.0691, "area with substrate ENLYRQS": 0.063, "area with substrate ENLYSQS": 0.0658, "area with substrate ENLYTQS": 0.0974, "area with substrate ENLYVQS": 0.137, "area with substrate ENLYYQS": 0.0699}
{"variant": "V113Y", "area with substrate ENLYDQS": 0.0482, "area with substrate ENLYEQS": 0.0649, "area with substrate ENLYGQS": 0.0411, "area with substrate ENLYHQS": 0.0599, "area with substrate ENLYIQS": 0.111, "area with substrate ENLYMQS": 0.0893, "area with substrate ENLYNQS": 0.0742, "area with substrate ENLYPQS": 0.0693, "area with substrate ENLYSQS": 0.0706, "area with substrate ENLYWQS": 0.0735}
{"variant": "V165L", "area with substrate ENLYDQS": 0.0276, "area with substrate ENLYEQS": 0.0652, "area with substrate ENLYNQS": 0.0702, "area with substrate ENLYSQS": 0.0898}
{"variant": "V165I", "area with substrate ENLYDQS": 0.0694, "area with substrate ENLYEQS": 0.0826, "area with substrate ENLYGQS": 0.0708, "area with substrate ENLYIQS": 0.111, "area with substrate ENLYKQS": 0.0772, "area with substrate ENLYPQS": 0.0642, "area with substrate ENLYSQS": 0.0708, "area with substrate ENLYYQS": 0.0574}
{"variant": "V57I", "area with substrate ENLYDQS": 0.0704, "area with substrate ENLYEQS": 0.0549, "area with substrate ENLYGQS": 0.0713, "area with substrate ENLYHQS": 0.0699, "area with substrate ENLYIQS": 0.136, "area with substrate ENLYKQS": 0.0711, "area with substrate ENLYMQS": 0.111, "area with substrate ENLYPQS": 0.0912, "area with substrate ENLYQQS": 0.0737, "area with substrate ENLYSQS": 0.0797, "area with substrate ENLYTQS": 0.0877, "area with substrate ENLYVQS": 0.12, "area with substrate ENLYWQS": 0.0815, "area with substrate ENLYYQS": 0.0709}
{"variant": "R51S", "area with substrate ENLYDQS": 0.0584, "area with substrate ENLYEQS": 0.0659, "area with substrate ENLYIQS": 0.144, "area with substrate ENLYKQS": 0.0669, "area with substrate ENLYMQS": 0.0745, "area with substrate ENLYNQS": 0.0682, "area with substrate ENLYRQS": 0.0659}
{"variant": "R51N", "area with substrate ENLYDQS": 0.0647, "area with substrate ENLYHQS": 0.0669, "area with substrate ENLYNQS": 0.0751, "area with substrate ENLYVQS": 0.0652}
{"variant": "D137A", "area with substrate ENLYDQS": 0.0563, "area with substrate ENLYEQS": 0.0685, "area with substrate ENLYGQS": 0.0754, "area with substrate ENLYHQS": 0.0761, "area with substrate ENLYIQS": 0.0798, "area with substrate ENLYKQS": 0.0281, "area with substrate ENLYNQS": 0.0708, "area with substrate ENLYQQS": 0.0627, "area with substrate ENLYVQS": 0.14, "area with substrate ENLYYQS": 0.0786}
{"variant": "C111A", "area with substrate ENLYDQS": 0.0538, "area with substrate ENLYEQS": 0.0836, "area with substrate ENLYHQS": 0.0897, "area with substrate ENLYIQS": 0.117, "area with substrate ENLYKQS": 0.0382, "area with substrate ENLYMQS": 0.102, "area with substrate ENLYPQS": 0.0561, "area with substrate ENLYWQS": 0.0666, "area with substrate ENLYYQS": 0.0503}
{"variant": "R109T", "area with substrate ENLYDQS": 0.0703, "area with substrate ENLYEQS": 0.0697, "area with substrate ENLYGQS": 0.0675, "area with substrate ENLYHQS": 0.0604, "area with substrate ENLYIQS": 0.123, "area with substrate ENLYMQS": 0.0767, "area with substrate ENLYNQS": 0.0723, "area with substrate ENLYPQS": 0.0798, "area with substrate ENLYRQS": 0.044, "area with substrate ENLYTQS": 0.0967, "area with substrate ENLYWQS": 0.0743}
{"variant": "R87D", "area with substrate ENLYDQS": 0.0513, "area with substrate ENLYKQS": 0.0187, "area with substrate ENLYLQS": 0.0455, "area with substrate ENLYRQS": 0.0392, "area with substrate ENLYSQS": 0.0685, "area with substrate ENLYYQS": 0.0483}
{"variant": "R87Q", "area with substrate ENLYDQS": 0.0584, "area with substrate ENLYEQS": 0.064, "area with substrate ENLYHQS": 0.136, "area with substrate ENLYIQS": 0.184, "area with substrate ENLYPQS": 0.0781, "area with substrate ENLYRQS": 0.0436, "area with substrate ENLYVQS": 0.129}
{"variant": "Y179D", "area with substrate ENLYDQS": 0.0441, "area with substrate ENLYHQS": 0.0512, "area with substrate ENLYKQS": 0.0148, "area with substrate ENLYMQS": 0.0666, "area with substrate ENLYNQS": 0.0422, "area with substrate ENLYQQS": 0.0591, "area with substrate ENLYVQS": 0.0737}
{"variant": "M83E", "area with substrate ENLYDQS": 0.0407, "area with substrate ENLYEQS": 0.0516, "area with substrate ENLYGQS": 0.0407, "area with substrate ENLYHQS": 0.0605, "area with substrate ENLYIQS": 0.0474, "area with substrate ENLYMQS": 0.0503, "area with substrate ENLYNQS": 0.0557, "area with substrate ENLYPQS": 0.067, "area with substrate ENLYQQS": 0.0704, "area with substrate ENLYRQS": 0.0576, "area with substrate ENLYVQS": 0.0557}
{"variant": "W141N", "area with substrate ENLYDQS": 0.0386, "area with substrate ENLYKQS": 0.0449, "area with substrate ENLYNQS": 0.0598, "area with substrate ENLYPQS": 0.0529}
